Laboratory results reported in PubChem BioAssay AID504332 (National Center for Advancing Translational Sciences (NCATS), 2011).
Screen size: about 350,000 compounds; about 31,000 (8.9%) were called active. Inconclusive means that the source gave no clear call. Such entries were picked first, then a sample of the others. The call rests on the fitted dose curve; in most records, active means well fitted inhibition curve with a large enough effect; inconclusive means small, poorly fitted or top-dose-only effect; inactive means no such curve, though single readings can be large or run the other way. Potencies beside an inconclusive call are fits to weak or partial responses and may not hold up.

Target: Histone-lysine N-methyltransferase EHMT2 (Homo sapiens) (UniProt Q96KQ7)
Test: qHTS Assay for Inhibitors of Histone Lysine Methyltransferase G9a; further: nearly all actives have a fitted effect of over 75% in size
Conditions: G9a H3K9 monomethylation, AlphaScreen, 2 h; activity, negative = inhibition: at 59 µM (top of the series) unless noted
In short: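 Methyltransferase reactions run at room temperature for 2 h (20 nM enzyme, 500 nM biotin-H3K9 peptide, 20 uM SAM) after a 15 min compound preincubation; product detected by AlphaScreen beads and anti-H3K9me1 antibody.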
On the % scale 0 is the no-effect control and ±100 the full control effect; potency means the concentration at half of the fitted maximal effect; tags describe the fitted curve by direction and shape.

Chain of UniProt Q96KQ7 (Q96KQ7 whole entry, looked up): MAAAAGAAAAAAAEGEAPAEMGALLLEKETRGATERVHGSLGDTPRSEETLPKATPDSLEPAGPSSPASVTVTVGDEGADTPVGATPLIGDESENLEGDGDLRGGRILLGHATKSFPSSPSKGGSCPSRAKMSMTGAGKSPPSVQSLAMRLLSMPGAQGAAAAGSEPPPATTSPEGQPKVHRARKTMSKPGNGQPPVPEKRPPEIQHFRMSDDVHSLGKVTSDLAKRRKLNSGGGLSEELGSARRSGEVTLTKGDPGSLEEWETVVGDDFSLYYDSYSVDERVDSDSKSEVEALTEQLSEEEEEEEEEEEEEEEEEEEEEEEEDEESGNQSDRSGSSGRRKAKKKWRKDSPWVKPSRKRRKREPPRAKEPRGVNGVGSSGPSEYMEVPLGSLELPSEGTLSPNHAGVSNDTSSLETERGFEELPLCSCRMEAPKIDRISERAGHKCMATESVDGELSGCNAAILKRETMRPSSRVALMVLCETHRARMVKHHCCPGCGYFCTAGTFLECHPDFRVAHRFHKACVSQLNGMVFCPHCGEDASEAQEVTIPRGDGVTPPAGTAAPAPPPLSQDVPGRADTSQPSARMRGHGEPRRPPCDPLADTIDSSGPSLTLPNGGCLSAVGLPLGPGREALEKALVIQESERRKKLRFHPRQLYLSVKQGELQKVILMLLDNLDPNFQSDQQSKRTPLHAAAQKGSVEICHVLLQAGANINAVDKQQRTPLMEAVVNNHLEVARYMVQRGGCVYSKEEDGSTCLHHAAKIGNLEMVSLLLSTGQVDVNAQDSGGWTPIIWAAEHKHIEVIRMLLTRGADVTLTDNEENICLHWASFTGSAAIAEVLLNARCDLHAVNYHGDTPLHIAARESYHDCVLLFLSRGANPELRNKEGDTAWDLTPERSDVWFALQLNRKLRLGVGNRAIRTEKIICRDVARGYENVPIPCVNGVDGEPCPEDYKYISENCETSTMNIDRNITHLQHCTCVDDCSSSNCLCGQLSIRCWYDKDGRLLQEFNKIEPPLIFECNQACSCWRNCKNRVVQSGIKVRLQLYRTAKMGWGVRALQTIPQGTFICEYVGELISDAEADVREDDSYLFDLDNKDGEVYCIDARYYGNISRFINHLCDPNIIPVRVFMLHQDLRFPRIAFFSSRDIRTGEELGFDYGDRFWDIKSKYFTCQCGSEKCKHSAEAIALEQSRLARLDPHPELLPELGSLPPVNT

**Q.** With `COc1ccc(NC(=O)CSc2nc(C(C)C)nc3c2c(=O)n(C)c(=O)n3C)c(OC)c1` as the compound, how does the Potency read?
**A.** inconclusive: 89.1 µM [inhibitor, single point]

**Q.** With `COc1ccc(-c2ccc(-c3noc(-c4cccc(OC)c4)n3)c(OC)n2)cc1` as the compound, how does the Potency read?
**A.** inconclusive: 100 µM [inhibitor, single point]

**Q.** For `Cn1c(=O)n(C)c2cc(S(=O)(=O)NCc3ccccc3)ccc21`, which Potency is on record?
**A.** inactive

**Q.** Which Potency does the source give for `Cc1cccc(NC(=O)c2cccc(S(=O)(=O)N3CCCCC3)c2)c1` here?
**A.** inactive

**Q.** Which Potency does the source give for `C=CCNC(=S)Nc1ccc(C(N)=O)cc1` here?
**A.** inconclusive: 56.2 µM [inhibitor, partial curve]

**Q.** `CN(C)S(=O)(=O)c1cccc(NC(=O)COC(=O)CNC(=O)c2cccc([N+](=O)[O-])c2)c1` was tested. Which Potency did it give?
**A.** inconclusive: 44.7 µM [inhibitor, partial curve, poor fit]

**Q.** `O=C(CCc1nc(-c2ccccc2)no1)Nc1cc(C(F)(F)F)ccc1Cl` was tested. Which Potency did it give?
**A.** inconclusive: 10 µM [inhibitor, partial curve, poor fit]

**Q.** For `O=C(COC(=O)CNC(=O)C1CCCCC1)Nc1ccccc1Cl`, which activity, negative = inhibition is on record?
**A.** inactive: -9.91% [at 0.501 µM]

**Q.** Which activity, negative = inhibition does the source give for `Cc1ccc(-n2nnc(-c3cccnc3Cl)n2)cc1` here?
**A.** inconclusive: -86% [inhibitor]

**Q.** Which Potency does the source give for `Cc1cn2c(=O)cc(COC(=O)c3ccc(NC(=O)C(C)Oc4ccccc4)cc3)nc2s1` (centres undefined) here?
**A.** inactive

**Q.** With `CCOc1cccc(C(=O)NC(=S)Nc2cccnc2)c1` as the compound, how does the Potency read?
**A.** active: 10 µM

**Q.** With `O=C(NC(=S)Nc1ccc(Cc2ccncc2)cc1)c1ccccc1F` as the compound, how does the Potency read?
**A.** active: 79.4 µM

**Q.** With `CCc1noc(C)c1C(=O)N1CCN(S(=O)(=O)c2ccc(Cl)cc2)CC1` as the compound, how does the Potency read?
**A.** inactive

**Q.** For `Cc1ccc(C)c(-n2nnc(C(=O)Nc3ccc(Br)cc3)c2C)c1`, which Potency is on record?
**A.** inconclusive: 39.8 µM [inhibitor, partial curve, poor fit]

**Q.** With `Cn1cnnc1Sc1nc2c(c(=O)n(C)c(=O)n2C)n1Cc1ccccc1Cl` as the compound, how does the Potency read?
**A.** inconclusive: 14.1 µM [inhibitor, single point]

**Q.** Which Potency does the source give for `O=C(CCN1CCCC1)Nc1ccc(Br)cc1` here?
**A.** active: 20 µM

**Q.** For `CCN(CC)C(=O)c1[nH]cnc1C(=O)N[C@@H](CCCCNC(=O)OC(C)(C)C)C(=O)OC(C)(C)C`, which activity, negative = inhibition is on record?
**A.** inconclusive: -88.5% [inhibitor]

**Q.** `Cc1nc2sc(C(c3cccs3)N3CCN(Cc4ccccc4)CC3)c(O)n2n1` (centres undefined) was tested. Which Potency did it give?
**A.** inconclusive: 63.1 µM [inhibitor, single point]

**Q.** Which Potency does the source give for `CCSc1ccc2nnc(-c3cccs3)n2n1` here?
**A.** inconclusive: 8.91 µM [inhibitor, full curve]

**Q.** For `CCCCNC(=S)NNC(=O)c1csc2ccccc12`, which Potency is on record?
**A.** inconclusive: 79.4 µM [inhibitor, single point]

**Q.** `COCCn1c(C)cc(O)c(C(c2ccc(OC)cc2)N2CCN(c3ccccc3)CC2)c1=O` (centres undefined) was tested. Which Potency did it give?
**A.** inconclusive: 39.8 µM [inhibitor, single point]

**Q.** `COC(=O)C1(C)NC(c2ccccc2C)C2C(=O)N(c3ccccc3)C(=O)C21` (centres undefined) was tested. Which Potency did it give?
**A.** inactive

**Q.** With `COCc1cc(C)nc(Nc2ccc(C)c(C)c2)c1C#N` as the compound, how does the Potency read?
**A.** inactive

**Q.** For `CS(=O)(=O)N(CC(=O)N1CCCCCC1)c1cccc(Br)c1`, which Potency is on record?
**A.** inconclusive: 89.1 µM [inhibitor, single point]

**Q.** Which Potency does the source give for `CCOCCn1c(=O)c2c(nc3n2CCN3c2ccc(C)c(C)c2)n(C)c1=O` here?
**A.** inconclusive: 17.8 µM [inhibitor, partial curve, poor fit]

**Q.** For `COc1cccc(NC(=O)C(NCCC(C)C)c2ccccc2)c1` (centres undefined), which Potency is on record?
**A.** inactive

**Q.** With `CN(C)c1cc(-c2ccc([N+](=O)[O-])cc2)oc(=O)c1Cl` as the compound, how does the Potency read?
**A.** inconclusive: 50.1 µM [inhibitor, partial curve]

**Q.** `COc1cccc(CN2c3ccc(Br)cc3C(=O)CS2(=O)=O)c1` was tested. Which activity, negative = inhibition did it give?
**A.** inconclusive: -54.4% [inhibitor] [at 2.33 µM]

**Q.** For `COc1cccc(-c2nc(CS(=O)(=O)CC(=O)NCCc3ccc(Cl)cc3)c(C)o2)c1`, which Potency is on record?
**A.** inactive

**Q.** Which Potency does the source give for `COC(=O)c1c(-c2ccc(C)cc2)csc1NC(=O)c1c(-c2ccccc2)noc1C` here?
**A.** inconclusive: 28.2 µM [inhibitor, single point]

**Q.** With `CC(=O)Nc1c(C(=O)O)[nH]c2ccccc12` as the compound, how does the Potency read?
**A.** inactive

**Q.** How did the activity, negative = inhibition turn out when `O=C(NCC(c1ccco1)N1CCCC1)c1cccc(S(=O)(=O)N2CCOCC2)c1` (centres undefined) was run?
**A.** inactive: 14.5% [at 2.33 µM]

**Q.** For `Cc1ccc(N(Cc2ccc(C(=O)NN=C3CCN(C)CC3)cc2)S(C)(=O)=O)cc1C`, which Potency is on record?
**A.** inactive

**Q.** How did the Potency turn out when `CN(C)CCCOC(=O)CCc1ccccc1` was run?
**A.** inconclusive: 79.4 µM [inhibitor, single point]

**Q.** `CC1CN(S(=O)(=O)c2cccc(-c3cn4cccnc4n3)c2)CC(C)O1` (centres undefined) was tested. Which Potency did it give?
**A.** inconclusive: 50.1 µM [inhibitor, partial curve, poor fit]

**Q.** Which Potency does the source give for `COc1ccc(N2CCN(CCCn3c(=S)[nH]c4ncccc4c3=O)CC2)cc1` here?
**A.** inconclusive: 39.8 µM [inhibitor, single point]

**Q.** `Cc1cc(NC(=S)N(Cc2ccc(Cl)cc2)Cc2ccc(C(=O)O)cc2)ccc1Cl` was tested. Which Potency did it give?
**A.** inconclusive: 50.1 µM [inhibitor, partial curve]

**Q.** For `Cc1cccc(NC(=O)CNC(=O)c2cccc(S(=O)(=O)NCc3cccs3)c2)c1C`, which activity, negative = inhibition is on record?
**A.** inactive: -9.33% [at 2.33 µM]

**Q.** How did the Potency turn out when `Cc1ccc(NC(=O)c2ccc(Nc3c([N+](=O)[O-])cc([N+](=O)[O-])cc3[N+](=O)[O-])cc2)cc1` was run?
**A.** inconclusive: 39.8 µM [inhibitor, partial curve, poor fit]

**Q.** For `O=C1CCCc2c1[nH]c1ccccc21`, which Potency is on record?
**A.** inconclusive: 56.2 µM [inhibitor, partial curve, poor fit]

**Q.** For `Cc1ccc(OCC(=O)NNC(=O)c2cccnc2)cc1`, which Potency is on record?
**A.** active: 79.4 µM

**Q.** With `COc1ccc(OCC2c3cc(OC)c(OC)cc3CCN2C(=O)c2c(F)cccc2F)cc1` (centres undefined) as the compound, how does the Potency read?
**A.** inconclusive: 28.2 µM [inhibitor, partial curve, poor fit]

**Q.** For `Cc1ccc(S(=O)(=O)N2CCC(NC(=O)c3cccc(C)c3)CC2)cc1`, which Potency is on record?
**A.** inconclusive: 79.4 µM [inhibitor, partial curve, poor fit]

**Q.** Which Potency does the source give for `CCn1c(SC(C)C)nnc1-c1cc(-c2ccccc2)sc1N` here?
**A.** inconclusive: 39.8 µM [inhibitor, single point]
